Laboratory results taken from the supplement of paper PMC12217912.
Some of the results follow. Sequences were assembled here from the parent chain. Inactive controls read about 0.05.

B1: TEV protease; numbered along this chain (parent)
chain: MGESLFKGPRDYNPISSSICHLTNESDGHTTSLYGIGFGPFIITNKHLFRRNNGTLVVQSLHGVFKVKDTTTLQQHLVDGRDMIIIRMPKDFPPFPQKLKFREPQREERICLVTTNFQTKSMSSMVSDTSCTFPSGDGIFWKHWIQTKDGQCGSPLVSTRDGFIVGIHSASNFTNTNNYFTSVPKNFMELLTNQEAQQWVSGWRLNADSVLWGGHKVFMVKPEEPFQPVKEATQL

Variants of: B1
Test: raw area under fraction-flipped curve 0-4 h after induction (AUC4h, not background-subtracted), DNA-recorder readout of cleavage of the substrate (dimensionless); higher = more cleavage of the substrate by the protease variant
Conditions: temperature: 34 °C; time window: 0-4 h after rhamnose induction
Method: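 In vivo DNA recorder in E. coli TOP10(DE3) ΔrhaA at 34 °C. Each TEVp single-site mutant (parent TEVp 0) is paired with a single-site variant of the 7-mer TEVs (canonical ENLYFQ|S). The substrate sits between flexible linkers in a Bxb1-sfGFP-TEVs-SsrA fusion, so cleavage stabilises Bxb1 and speeds flipping of a recombination array, read by NGS. The value is the raw area under the fraction-flipped curve over 0-4 h after rhamnose induction (AUC4h), with ≥20 reads per time point. It is not background-subtracted; inactive controls average about 0.047.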
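Note: Bxb1 expression induced with 0.2% (w/v) L-rhamnose at OD600 near 0.5, cultures sampled hourly, flipped fraction per protease–substrate barcode pair counted by paired-end Illumina sequencing.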

Row | Variant | area with substrate ENAYFQS | area with substrate ENEYFQS | area with substrate ENFYFQS | area with substrate ENHYFQS | area with substrate ENMYFQS | area with substrate ENNYFQS | area with substrate ENPYFQS | area with substrate ENQYFQS | area with substrate ENRYFQS | area with substrate ENSYFQS | area with substrate ENWYFQS | area with substrate ENYYFQS | area with substrate ENDYFQS | area with substrate ENGYFQS | area with substrate ENIYFQS | area with substrate ENKYFQS | area with substrate ENTYFQS | area with substrate ENVYFQS | area with substrate ENCYFQS
1 | L61Q | 0.0505 | 0.0626 | 0.0638 | 0.0597 | 0.107 | 0.0566 | 0.0663 | 0.053 | 0.086 | 0.0536 | 0.0291 | 0.0726 |  |  |  |  |  |  | 
2 | I43M | 0.0528 | 0.0497 | 0.058 | 0.0609 | 0.0672 | 0.0594 | 0.0598 | 0.0543 | 0.0506 | 0.0611 | 0.0528 | 0.0629 | 0.061 | 0.0614 | 0.081 | 0.0693 | 0.0296 | 0.0649 | 
3 | T31L | 0.0768 | 0.0659 | 0.0451 | 0.0631 |  |  | 0.0622 | 0.0523 | 0.0684 | 0.0707 |  |  | 0.0614 | 0.0637 |  | 0.0551 | 0.0673 |  | 
4 | T31H | 0.0589 | 0.0599 | 0.0476 | 0.0657 |  | 0.0734 |  | 0.0617 |  | 0.0584 |  |  | 0.062 | 0.0441 | 0.0862 |  | 0.0579 | 0.0621 | 0.0649
5 | K46D | 0.0576 |  | 0.054 | 0.0606 | 0.0616 | 0.0564 | 0.0539 | 0.0592 |  | 0.0585 | 0.0508 |  | 0.0658 | 0.0479 |  | 0.0674 | 0.0621 | 0.0639 | 0.0563
6 | S17Y | 0.0653 | 0.0613 | 0.0619 | 0.0622 | 0.077 | 0.0562 | 0.0631 | 0.0566 | 0.0498 | 0.0636 | 0.0397 |  | 0.0578 | 0.0573 | 0.135 | 0.0635 | 0.0595 | 0.077 | 0.0729
7 | F49S | 0.0626 | 0.0556 | 0.0523 |  | 0.0705 | 0.0636 |  | 0.0739 | 0.0553 | 0.06 | 0.0378 |  | 0.0561 |  | 0.053 | 0.0694 |  | 0.0495 | 0.0667
8 | F49E | 0.058 | 0.0527 | 0.0548 | 0.0521 |  | 0.0584 | 0.0481 | 0.0512 | 0.0557 | 0.06 | 0 | 0.0567 | 0.0555 | 0.0507 | 0.0568 | 0.0559 | 0.0565 | 0.0354 | 0.0435
9 | T55K | 0.0574 | 0.0589 | 0.0695 | 0.0518 |  |  |  | 0.0573 | 0.0607 | 0.0475 | 0.0422 |  | 0.0596 | 0.062 | 0.0928 |  |  | 0.0745 | 0.0651
10 | T55H | 0.065 |  |  | 0.0693 |  | 0.0368 | 0.0946 | 0.0612 | 0.0543 |  |  | 0.0619 | 0.0625 | 0.0634 |  | 0.0606 |  | 0.0843 | 0.0876
11 | Q59A | 0.0578 |  |  |  |  | 0.0575 |  |  |  | 0.0678 |  |  | 0.0488 | 0.0523 |  | 0.0569 | 0.0686 |  | 
12 | Y34N | 0.0564 | 0.0623 |  |  | 0.0715 |  |  | 0.0861 | 0.0488 | 0.0649 |  |  | 0.062 |  |  |  |  |  | 0.043
13 | S60A | 0.0627 | 0.0554 | 0.0573 | 0.0629 | 0.106 | 0.0778 | 0.0564 | 0.0741 | 0.0683 | 0.0606 | 0.004 | 0.0633 | 0.0618 | 0.0556 | 0.0939 | 0.0653 | 0.0508 | 0.0648 | 0.0607
